This assay concerns B. subtilis. The experiment in a line: Single concentration (250 μM) whole-cell resazurin fluorescence assay. As to conditions: 250 μM single-concentration assay. The procedure: The assay was performed in LB broth.
Tested compounds are exemplified in Scheme 14. In an initial set-up, each compound was evaluated at the single concentration of 250 μM in triplicate. […] After incubation of the bacteria with the inhibitors for four hours, resazurin dye was added and the plate was immediately placed in a plate reader. Fluorescence of each well was measured at 590 nm at 0, 5, 10, 20, and 60 min after addition of the dye. A higher growth rate of bacteria produces more resorufin and thus more fluorescence. Lower fluorescence therefore indicates better growth inhibition.
Fluorescence was further evaluated as it developed over time.

Molecules are shown by their SMILES.

Consider `O=C(NC1CCCCC1)C(C1CCCCC1)N(C(=O)c1ccccc1I)C1CCCCC1` (stereo not shown) [fgkc], for which the “degree of inhibitory activity across all three runs” value is “highest degree of inhibitory activity”.
